PubChem BioAssay AID743279 (National Center for Advancing Translational Sciences (NCATS), 2014)
Hit rate of the full screen: of about 360,000 compounds, about 17,000 (4.7%) were called active. The shares of active, inactive and inconclusive entries below differ from those in the screen. No stated cut-off is given here; in the data, active means activity change below about -50%; inconclusive means mostly about -30% to -49%; inactive means weaker than that.

Assay: qHTS for Inhibitors of Inflammasome Signaling: IL-1-beta AlphaLISA Primary Screen
Conditions: THP-1 LPS/ATP IL-1B secretion, 16 h; at 57.5 µM, hits give low values
In short: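 THP-1 cells pretreated 1 hr with compounds (up to 57.5 uM final), then stimulated with LPS (250 ng/mL final) plus ATP (1.25 mM final); secreted IL-1B measured by AlphaLISA after 16 hr, decreased signal indicating inhibition.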
On the % scale 0 is the no-effect control and ±100 the full control effect.

Structure (SMILES)	activity change
CC(C)(CNC(=O)CO/N=C1/C=C2CCC3C(C(O)C[C@@]4(C)C3CC[C@]4(O)C(=O)CO)[C@@]2(C)CC1)C(O)C(=O)O (some centres undefined)	inconclusive: -30.6%
CC1(C)CC(=O)C(C=NCCN2CCN(C3CC(=O)N(c4ccc(Cl)c(Cl)c4)C3=O)CC2)=C(O)C1 (centres undefined)	inconclusive: -35.4%
CC(=O)Oc1ccc(/C=N\NC(=O)c2cc3c(ccc4ccccc43)o2)cc1	inconclusive: -44.3%
O=C(CCCCCn1c(SCc2ccncc2)nc2ccccc2c1=O)NCc1ccco1	inconclusive: -36.2%
CCOc1ccc(CNC2CCCCCCC2)cc1OC	inconclusive: -34%
CC(C)C[C@H]1CN([C@@H](Cc2ccc(O)cc2)CN2CCC[C@H]2CN2C(=O)C(=O)NC[C@@H]2Cc2ccc(O)cc2)C(=O)C(=O)N1CCc1ccccc1	inactive: -2.75%
COCCNc1nc(NCCCN2CCCC2=O)c2sc(-c3ccccc3)cc2n1	inactive: 0%
Cc1nc(SCC(=O)NCc2ccco2)c2c3c(sc2n1)CCCC3	inactive: -8.55%
COc1ccc(-n2ncc(N(C)n3cccc3)c(Cl)c2=O)cc1	inactive: -14.3%
NS(=O)(=O)c1ccc(Nc2nc(-c3cccnc3)cs2)cc1	inactive: 5.72%
COc1ccc(NC(=O)c2c([N+](=O)[O-])c(C(C)(C)C)nn2C)cc1	active: -54.4%
CCOC(=O)C1(C)CCCN(C(=O)c2c(F)cccc2F)C1 (centres undefined)	inactive: 8.58%
COc1cc2c(cc1O)CCN(C(=O)CSc1nncn1C)[C@@H]2C	inactive: 17.8%
CCCC1=[N+](CC(=O)c2ccc(Br)cc2)CCn2cccc21	inactive: -10.8%
CN(C)c1ccc2c(c1)C(=NO)c1ccccc1-2	inconclusive: -45.9%
Fc1ccc(F)c(NC(=S)NCCc2ccccc2)c1	active: -65.7%
CSc1nsc(SC)c1C(=O)Nc1ccc(C(C)(C)C)cc1	inactive: 45.9%
CCc1ccc2[nH]c3nc(SCc4nnc(-c5ccc(C)cc5)o4)nnc3c2c1	inactive: 26%
CC(=O)Nc1ccc(S(=O)(=O)N2CCc3cc4c(cc3C2)OCCCO4)cc1	inactive: 7.13%
Oc1ccccc1C(=S)N1CCN(c2cccc(Cl)c2)CC1	active: -96.8%
COc1ccc(CCN(C)C(=O)CSc2nc3ncc(Cl)cc3[nH]2)cc1OC	inconclusive: -36%
CCOC(=O)C1(CCc2ccccc2)CCN(Cc2cccc3nccnc23)CC1	inconclusive: -34.4%
CCc1sc(C(=O)N2CCN(c3ccc(F)cc3)CC2)cc1C	inactive: 3.86%
COc1ccc(NS(=O)(=O)c2c(C(=O)N3CCCCCC3)c(C)n(C)c2C)cc1	inconclusive: -43.8%
